# Measured values reported in paper PMC8786932, “Bicyclic azetidines target acute and chronic stages of Toxoplasma gondii by inhibiting parasite phenylalanyl t-RNA synthetase” (Nature Communications, 2022).
# Values joined by “and” are separate entries in the source; they are usually repeats but may differ in a detail not shown here. Equal entries are not always repeated. Where two headings read alike, the source gives them in different places.
# Columns and labels:
# [1] = biological target: T1, TgPheRS[L497V] (Toxoplasma gondii, UniProt A0A125YPN6, L497V); test: biochemical; settings: for enzyme assay readout (raw): L497V
# T1 sequence (A0A125YPN6 1-525 L497V): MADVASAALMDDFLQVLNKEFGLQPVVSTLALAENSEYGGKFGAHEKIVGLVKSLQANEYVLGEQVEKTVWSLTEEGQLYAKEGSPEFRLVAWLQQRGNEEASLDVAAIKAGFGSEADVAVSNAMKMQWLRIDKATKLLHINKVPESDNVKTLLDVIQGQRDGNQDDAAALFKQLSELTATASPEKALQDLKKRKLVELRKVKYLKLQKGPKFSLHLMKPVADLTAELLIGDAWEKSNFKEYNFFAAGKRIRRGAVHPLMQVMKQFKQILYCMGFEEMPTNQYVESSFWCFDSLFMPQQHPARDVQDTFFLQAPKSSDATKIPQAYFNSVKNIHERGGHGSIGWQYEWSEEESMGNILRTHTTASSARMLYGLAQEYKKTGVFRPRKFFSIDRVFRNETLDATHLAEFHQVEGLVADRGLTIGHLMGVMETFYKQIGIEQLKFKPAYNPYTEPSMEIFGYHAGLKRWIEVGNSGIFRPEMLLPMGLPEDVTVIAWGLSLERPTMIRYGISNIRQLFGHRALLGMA
# T1 sequence (S8EZ50 1-675 partner): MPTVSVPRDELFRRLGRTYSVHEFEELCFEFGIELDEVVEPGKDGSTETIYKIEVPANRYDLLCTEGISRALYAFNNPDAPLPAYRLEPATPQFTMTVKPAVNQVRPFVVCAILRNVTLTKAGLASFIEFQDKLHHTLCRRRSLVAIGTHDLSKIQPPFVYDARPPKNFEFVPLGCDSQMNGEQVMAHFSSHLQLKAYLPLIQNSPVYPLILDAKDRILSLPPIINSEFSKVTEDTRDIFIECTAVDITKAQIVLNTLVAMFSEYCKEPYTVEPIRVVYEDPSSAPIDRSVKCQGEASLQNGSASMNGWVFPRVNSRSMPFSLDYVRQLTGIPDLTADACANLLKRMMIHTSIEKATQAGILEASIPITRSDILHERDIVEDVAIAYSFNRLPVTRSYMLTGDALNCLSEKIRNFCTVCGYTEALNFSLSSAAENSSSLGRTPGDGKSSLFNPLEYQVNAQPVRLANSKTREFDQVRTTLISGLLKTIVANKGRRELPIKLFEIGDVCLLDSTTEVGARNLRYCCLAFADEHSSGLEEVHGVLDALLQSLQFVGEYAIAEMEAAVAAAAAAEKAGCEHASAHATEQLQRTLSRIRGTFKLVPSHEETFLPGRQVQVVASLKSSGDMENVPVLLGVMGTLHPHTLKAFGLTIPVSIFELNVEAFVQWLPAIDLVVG
# Description: See Table S3 for primer information.
# For purification of both wild type and mutant TgPheRS, E.coli cultures were grown at 37 °C to an OD600 of 0.6–0.8. recombinant protein expression was induced by the addition of 0.6 mM isopropyl β-d-1-thiogalactopyranoside (IPTG) at 18 °C. After 18–20 h post-induction, the cells were harvested by centrifugation at 5,000 g for 20 min, resuspended in binding buffer (50 mM Tris–HCl (pH 8), 200 mM NaCl, 4 mM β-mercaptoethanol (βMe), 10% (v/v) glycerol, 1 mM phenylmethylsulfonyl fluoride (PMSF) and 0.1 mg/mL lysozyme), and lysed using sonication. The lysed cells were then centrifuged at 20,000 g for 45 min and the cleared soluble protein lysate was loaded on a prepacked Ni-NTA column (GE Healthcare). Proteins which bound the Ni-NTA were washed with 20 column volumes of binding buffer supplemented with 20 mM imidazole to remove impurities. […] . The fractions which contained purified protein were pooled together and concentrated using 30-kDa cut-off centrifugal devices (Millipore) followed by size exclusion chromatography using the GE HiLoad 60/600 Superdex column in a buffer containing 50 mM HEPES (pH 8), 200 mM NaCl, 4 mM β-mercaptoethanol, 1 mM MgCl2. Purity of the eluted fractions was verified on a SDS PAGE gel, fractions pooled together and stored at −80 °C until further use.
# [2] = test system: T. gondii RHΔΔ TgPheRS[L497V]; test: Tachyzoite lytic assay, L497V mutant; type: cell-based, Toxoplasma gondii; settings: for % Parasite Growth: L497V; for EC50: Toxoplasma gondii
# Description: In vitro cultures of HFF cells containing mature vacuoles were scraped, passaged through 23 g blunt end needles, and filtered using 3 micron filters. Purified parasites were resuspended in 350 μL of cytomix plus[49] and combined in a BTX 4 mm gap cuvette with 30 μL of PCR amplified templates corresponding to mutations of interest and 10 μg of pSAG1:Cas9-GFP U6:sgTgPheRS^[mut] (in 20 μL, 400 μL total volume, see Supplementary Data 1 for sgRNA sequences) prior to electroporation using a BTX ETM 830 electroporator. Amplified templates for TgPheRS mutations were generated from gBlocks (Integrated DNA Technologies, Coralville, IA, USA) that contain a BclI restriction site that replaces the PAM sequence to protect the repair template from being cut by Cas9. At 16 h post-transfection, transgenic parasites expressing pSAG1:Cas9-GFP were sorted on a Sony SH800 FACS sorter directly into 96-well plates. Single clones containing TgPheRS^[mut] were identified by amplifying a ~500 bp PCR fragment around introduced mutation followed by digestion using BclI (New England Biolabs) BclI sensitive clones were expanded and the locus was Sanger sequenced to verify incorporation of each independent mutation. To generate firefly luciferase (FLuc) expressing strains, freshly harvested parasites were combined with 20 μg of pTUB-FLUC DHFR flox plasmid and 10 μg of pSAG1:Cas9-GFP U6:sgUPRT[50] (in 50 μL cytomix plus) and transformed by electroporation as described above. Parasites were allowed to recover overnight followed by sequential selection with pyrimethamine (1.0 μM) and 5-flurodeoxyuracil (FUDR, 10 μM), as described previously. Stable clones were isolated by limiting dilution and a clone from each genetic background selected based on high luciferase activity (Table 1).
# Parasite growth on HFF monolayers was monitored using a 96-well plate-based lytic assay modified from a previously described protocol. […]. Freshly harvested parasites (7.5 × 10^4 /well) were added to each well (in 100uL volume) to reach the final concentration range (10 μM to 0.0005 μM, 200 μL/well, 0.1% DMSO). Plates were incubated for 72 h at 37 °C then culture medium was aspirated and monolayers were fixed with 100% ethanol (ETOH) for 5 min at room temperature (RT). After rinsing with water, wells were stained with 0.1% crystal violet solution for 10 min at RT. Plates were rinsed with water, air dried, and absorption quantified on the Cytation 3 multi-mode imager at 570 nm wavelength. % parasite growth was calculated as 100−[(OD value for infected cultures at each concentration of compound/average OD value for no compound and no parasite infection) × 100]. EC50 values were calculated based on the mean of three biological replicates with each replicate containing two technical replicates.
smiles,measurement,setting,value
COc1ccc(NC(=O)N2CCCCN3[C@H](CN(C)C)[C@H](c4ccc(C#Cc5ccccc5)cc4)[C@@H]3C2)cc1 [BRD7929],IC50,[1],2110 nM
same,enzyme assay readout (raw),[1]; 0.000100 μM,0.5775 and 0.5838 and 0.5411
same,enzyme assay readout (raw),[1]; 0.001000 μM,0.5271 and 0.5991 and 0.5505
same,enzyme assay readout (raw),[1]; 0.010000 μM,0.5348 and 0.5970 and 0.52
same,enzyme assay readout (raw),[1]; 0.100000 μM,0.5428 and 0.5332 and 0.5286
same,enzyme assay readout (raw),[1]; 1.000000 μM,0.4659 and 0.4572 and 0.4589
same,enzyme assay readout (raw),[1]; 10.000000 μM,0.4155 and 0.4208 and 0.4102
same,enzyme assay readout (raw),[1]; 100.000000 μM,0.3116 and 0.3383 and 0.3149
same,% Parasite Growth,[2]; 0.00152416 uM,64.58% and 66.7%
same,% Parasite Growth,[2]; 0.00457247 uM,67.68% and 40.9%
same,% Parasite Growth,[2]; 0.01371742 uM,64.27% and 35.67%
same,% Parasite Growth,[2]; 0.04115226 uM,67.06% and 53.63%
same,% Parasite Growth,[2]; 0.12345679 uM,74.64% and 51.36%
same,% Parasite Growth,[2]; 0.37037037 uM,55% and 63.39%
same,% Parasite Growth,[2]; 10 uM,12.93% and 9.87%
same,EC50,[2]; read-out: EC50 (growth restriction),1420 nM
same,EC50,"[2]; read-out: EC50, L497V",1560 nM
